Test results from the supplement of paper PMC11417369.
The list shows a part of the results.

Each sequence was assayed on PF3D7_0420300 AP2 domain 1 (GST-tagged) (assay: gcPBM binding intensity (ln(normalized median fluorescence intensity)); higher = stronger DNA binding).
In short: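 Plasmodium falciparum DNA-binding domains carrying a GST tag were expressed in E. coli and applied for 1 h, at about 25 μg on average, to an Agilent 4 × 180k array. The array held primer-extended double-stranded 36-bp intergenic genomic probes together with negative controls, and binding took place in 1× PBS with 1% milk, 0.2 mg/ml BSA, 0.5% salmon testes DNA and 0.03% Triton X-100. An Alexa488 anti-GST antibody detected bound protein, and the array was scanned at 488 nm. Binding intensity is taken as the highest Masliner-normalised natural-log median intensity across replicate spots of either probe orientation.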

Sequence	gcPBM binding intensity (ln)
AATTATATGCTTAATACGCACACGGGAAAAAAAAAA [CACACA_site1376]	9.26
TAAATAAAAAAAAATCGTACATATATTTTATATATG [XGTACX_site3293]	8.92
TTTTCAAAAATATACACACACATAAATATCTGTATA [CACACA_site4586]	9.61
TCGTAATAATAGTTGAGTACGCACTAATATGTCAAT [XGTACX_site643]	9.38
TATTTACATTTTAGTAGTACATATATGTATATATAT [XGTACX_site6839]	9.14
GAACATTTCACACAAAAAAAAAAAAATATATATATA [TGCATGCA_negctrl_site518]	9.24
ACATGATGTCATAAATGTACGCACACATACATAAAC [XGTACX_site1198]	9.44
TCTTTTTAAATATATACACACCGTGTCTACAGATAC [CACACA_site5784]	9.19
TACTAATATAATAAAAGTACTTAAATAAATATATGT [XGTACX_site2220]	9.3
AAAAAAAAAAAACACACACACACAAATATATAAAAA [CACACA_site1171]	10.1
ATACCTTCTTTTATGTTTAATTAATATACTTTTTAT [CACACA_negctrl_site1557]	9.51
GTATAAAAGTTATATACACACAACAGAATTACATAT [CACACA_site6212]	9.8
TTTGAAAAAAATTAATGTACATTTGAAATGACATAT [XGTACX_site3902]	8.93
AATACATACATACATACACACATATAAATATATTAT [CACACA_site7650]	9.85
TCATATATGGGTAGTATACACACTGTATATTTAGGA [CACACA_site2844]	9.31
TTTGCCCAAAAAGGTACACACCACAATGTACATAAA [CACACA_site4599]	9.29
TTTTATTTAAATACACGTACATAATGTATATATATA [XGTACX_site7160]	9.14
TACTAAGAATTAATATAACAAAATAAAAAAAAAAAA [XGTACX_negctrl_site346]	9.19
ATACAGATATATAATACACACATAAATGTAACATTT [CACACA_site5864]	9.77

Sequence	gcPBM binding intensity (ln)
ATGTATATATATATATGTACTAATTAGTAGTTTACG [XGTACX_site6272]	9.35
TGTATGTATAAAAACGCATGTATGTATTTTACAATA [TGCATGCA_site767]	9.14
GATATTTTTTTCGAAAGTACAAAAAAAAATATTTCC [XGTACX_site4389]	8.86
AAAATTAAAAATAACACACACATATATATATTTATA [CACACA_site2776]	9.84
ATATATATACCAAGTAGTACATTCTACAACTAATGT [XGTACX_site8653]	9.24
TTTATTTGTAACGGTTGTACTTGTATATCATTATGA [XGTACX_site4281]	9.47
TAGTGATATAATTATGTGCACTTAATACAGGTCGAT	9.42
CACTAAAATAGACACACACACACACGGATATAAATA [CACACA_site7873]	10.3
CTTAAATTTAAGTTCACACATATTGGTCATTTATAT [CACACA_site5006]	9.42
TAGATACATACACGCACACACATATATATATATATA [CACACA_site12]	9.77
AATGTACGTTTTATAACACACACACTAATAAAAAAA [CACACA_site9286]	9.78
CCACATTAAAAAAAAACACACATATATTATAGATAT [CACACA_site6662]	9.64
ATCTTCAAAAATATTAGTACACATGTATCATGAATT [XGTACX_site3872]	9.12
AGAAAAGAAATTAGTTGTACTCTGATGAATTATCCT [XGTACX_site6284]	9.12
GATGTTCATCACTACACACACAAAGAAATATAAATA [CACACA_site7294]	9.76
TACCCAAAGTTACATACACACTAATATTTACACCAT [CACACA_site4709]	9.64
ATATGAAGTTATATAGTGCACATGTACAACCAAATC [GTGCAC_site9974]	9.6
TTCTATATATATATAGACAAACGATAAAATAAAAAA [GTGCAC_negctrl_site142]	9.29
TAATAATAGTGAGAGTGTACTTTAAATAAAATATAT [XGTACX_site2850]	9.33

Sequence	gcPBM binding intensity (ln)
AAAGAATTTAAATATTGTACGCAATATATAAAAAAA [XGTACX_site7616]	9.07
TAATATTATTATTTTACACACTTTTTTCCTTTTATC [CACACA_site2457]	9.45
AAAAGTACAATATATATGTATGTGTATAGAATGGTT [TGCATGCA_negctrl_site76]	9.56
TACAATTTGATATATACACACAAATAAATTATGCTT [CACACA_site6534]	9.37
ATAATATTATACTTTGCACACATCTGAAATGACATA [CACACA_site3952]	9.45
AAAAAACAGACATACACACACACACCCATATATATA [CACACA_site3392]	10.2
TTTGATAAAATTGATATCCTATAATTATATAAATAA [GTGCAC_negctrl_site317]	8.83
GATAAAATAAAAGTGGGTACTTAAATATATATATAA [XGTACX_site8457]	9.28
GGATAAGATGTATATACACACAATTTAAAAAAATAA [CACACA_site910]	9.35
AATACAATTTTTAACACACACACAATAATACAGATA [CACACA_site4823]	10.2
GTGTAATTTATTGTGTTGCACTTTTTTTTTTTTTTT [GTGCAC_site9644]	9.46
AAGATAGACTCATATGCATGCATTCACATACCAACA [TGCATGCA_site179]	9.31
TTAATATAGGAATATGCACACATATATACATACATA [CACACA_site8432]	9.39
ATTCTATATTTAAATGCATGCACTTTCTATTTTTTT [TGCATGCA_site435]	9.53
TTTAATTTGTTATACACACACAAAAAAAATTATAAA [CACACA_site3937]	9.5
GCTAAAAGTATATGCACACACATATAGATGCACATA [CACACA_site6868]	9.55
GACACTTTGAAGGGTACATGCAGAAAAAAAAAAAAA [TGCATGCA_site89]	9.01
TTTTATTTATCTAATTGTACTCATTCTTTTTTGATG [XGTACX_site2876]	9.31
AATGTGCCCACGCGTACACACAAAAAAAGAAAAAAA [CACACA_site2003]	9.37
